Whole data set: some 81,000 sequences, median “one-hybrid fitness for binding NBS DNA” near -0.1, cut for the highest 2% near 0.36. Some of the results follow.
B1: Caulobacter ParB omega fusion; a variant is named by its letters at X, in order, B8GW30 (parent)
chain: MESVVVGEPGMSEGRRGLGRGLSALLGEVDAAPAQAPGEQLGGSREAPIEILQRNPDQPRRTFREEDLEDLSNSIREKGVLQPILVRPSPDTAGEYQIVAGERAWRAAQRAGLKTVPIMVRELDDLAVLEIGIIENVQRADLNVLEEALSYKVLMEKFERTQENIAQTIGKSXSHVANXMRLLXLPDEVQSYLVSGELTAXHARAIAAAADPVALAKQIIEGGLSVRETEALARKAPNLSAGKSKGGRPPRVKDTDTQALESDLSSVLGLDVSIDHRGSTGTLTITYATLEQLDDLCNRLTRGI

Variants of: B1
Assay: one-hybrid fitness for binding NBS DNA (the Noc-binding site; scaled: cognate 1, non-cognate 0); higher = stronger binding
Settings: with NBS DNA site
Summary of the method: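 Pre- and post-selection plasmids were Illumina-sequenced, three replicate libraries were pooled, and any variant with under 10 reads was removed. The libraries were Caulobacter ParB with four specificity codons randomised, selected in E. coli USO through a HIS3 reporter whose site is 19 bp from the promoter. Cells grew 48 hours at 37°C on M9 without histidine, with 0.1 mM IPTG and 5 mM 3-AT. Fitness is the log change in variant-to-wild-type read ratio, rescaled against cognate and non-cognate.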

| Variant | one-hybrid fitness for binding NBS DNA |
| --- | --- |
| HDVS | ≤ 0.2 |
| SGTI | ≤ 0.2 |
| RDMS | ≤ 0.2 |
| RGNQ | ≤ 0.2 |
| TILN | ≤ 0.2 |
| GSNC | ≤ 0.2 |
| QEIG | ≤ 0.2 |
| LSKT | ≤ 0.2 |
| FRPS | ≤ 0.2 |
| YYSM | ≤ 0.2 |
| FIDS | ≤ 0.2 |
| ATNC | ≤ 0.2 |
| QDLI | ≤ 0.2 |
| PKKR | ≤ 0.2 |
| YNPG | ≤ 0.2 |
| TDPG | ≤ 0.2 |
| VACY | ≤ 0.2 |
| SNLC | ≤ 0.2 |
| HSHH | ≤ 0.2 |
| YIYE | ≤ 0.2 |
| TRDR | ≤ 0.2 |
| WPSM | ≤ 0.2 |
| TRPF | ≤ 0.2 |
| DGSL | ≤ 0.2 |

| Variant | one-hybrid fitness for binding NBS DNA |
| --- | --- |
| DCAR | ≤ 0.2 |
| RGLG | ≤ 0.2 |
| AGAN | ≤ 0.2 |
| VYSG | ≤ 0.2 |
| SYDR | ≤ 0.2 |
| LRLF | ≤ 0.2 |
| EMSR | ≤ 0.2 |
| WYTA | ≤ 0.2 |
| FRDY | ≤ 0.2 |
| DTTG | ≤ 0.2 |
| SSFK | ≤ 0.2 |
| THRK | ≤ 0.2 |
| NDKW | ≤ 0.2 |
| VNRI | ≤ 0.2 |
| QMVE | ≤ 0.2 |
| RHRN | ≤ 0.2 |
| TWWR | ≤ 0.2 |
| RGQR | ≤ 0.2 |
| HMNA | ≤ 0.2 |
| WGAC | ≤ 0.2 |
| MTVG | ≤ 0.2 |
| YVRY | ≤ 0.2 |
| KPYG | ≤ 0.2 |
| NPAI | ≤ 0.2 |

| Variant | one-hybrid fitness for binding NBS DNA |
| --- | --- |
| FQCG | ≤ 0.2 |
| AMSF | ≤ 0.2 |
| TCYT | ≤ 0.2 |
| ACQF | ≤ 0.2 |
| AGPA | ≤ 0.2 |
| LSVS | ≤ 0.2 |
| VENK | ≤ 0.2 |
| TQWA | ≤ 0.2 |
| SCIR | ≤ 0.2 |
| QPKR | 0.405 |
| YLYE | ≤ 0.2 |
| PPEN | ≤ 0.2 |
| DKCR | ≤ 0.2 |
| VPDS | ≤ 0.2 |
| SEAQ | ≤ 0.2 |
| CHHI | ≤ 0.2 |
| RMHV | ≤ 0.2 |
| CMWG | ≤ 0.2 |
| GPHR | ≤ 0.2 |
| FRKT | ≤ 0.2 |
| RVTQ | ≤ 0.2 |
| IKGL | ≤ 0.2 |
| GFLL | ≤ 0.2 |
| SRQV | ≤ 0.2 |

| Variant | one-hybrid fitness for binding NBS DNA |
| --- | --- |
| RGVL | ≤ 0.2 |
| TTLY | ≤ 0.2 |
| TWKY | ≤ 0.2 |
| YAAG | ≤ 0.2 |
| RTMR | 0.503 |
| QLLC | ≤ 0.2 |
| DIPH | ≤ 0.2 |
| FAWC | ≤ 0.2 |
| EVPI | ≤ 0.2 |
| GPPC | ≤ 0.2 |
| TENK | ≤ 0.2 |
| DHPR | ≤ 0.2 |
| ASQS | ≤ 0.2 |
| PQLS | ≤ 0.2 |
| TKLR | ≤ 0.2 |
| IRKF | ≤ 0.2 |
| HVWG | ≤ 0.2 |
| LSPC | ≤ 0.2 |
| WSEC | ≤ 0.2 |
| ACRW | ≤ 0.2 |
| DLCG | ≤ 0.2 |
| TRSP | ≤ 0.2 |
| HGRE | ≤ 0.2 |
| RHDT | 0.258 |

| Variant | one-hybrid fitness for binding NBS DNA |
| --- | --- |
| NWYN | ≤ 0.2 |
| RSQH | ≤ 0.2 |
| PWTQ | ≤ 0.2 |
| YRNG | ≤ 0.2 |
| AIIS | ≤ 0.2 |
| RVYV | ≤ 0.2 |
| LTIL | ≤ 0.2 |
| NAIC | ≤ 0.2 |
| VPSV | ≤ 0.2 |
| STAR | ≤ 0.2 |
| TVTR | ≤ 0.2 |
| SDPG | ≤ 0.2 |
| YTDC | ≤ 0.2 |
| CHQW | ≤ 0.2 |
| KPAM | ≤ 0.2 |
| YDYN | ≤ 0.2 |
| HTPQ | ≤ 0.2 |
| NFSC | ≤ 0.2 |
| ADHT | ≤ 0.2 |
| EQDL | ≤ 0.2 |
| VNES | ≤ 0.2 |
| VSEL | ≤ 0.2 |
| NQKS | ≤ 0.2 |
| RICT | 0.323 |

| Variant | one-hybrid fitness for binding NBS DNA |
| --- | --- |
| SLLN | ≤ 0.2 |
| SQLP | ≤ 0.2 |
| LGFR | ≤ 0.2 |
| CQLW | ≤ 0.2 |
| TYGR | ≤ 0.2 |
| FRQA | ≤ 0.2 |
| QRVY | 0.344 |
| KYQT | ≤ 0.2 |
| SNDV | ≤ 0.2 |
| RAGH | ≤ 0.2 |
| TDHR | ≤ 0.2 |
| KCRC | ≤ 0.2 |
| FSHG | ≤ 0.2 |
| AWPA | ≤ 0.2 |
| CGRH | ≤ 0.2 |
| ETGK | ≤ 0.2 |
| NGSW | ≤ 0.2 |
| QTEA | 0.225 |
| RNDW | ≤ 0.2 |
| PIFG | ≤ 0.2 |
| LIPT | ≤ 0.2 |
| PTMC | ≤ 0.2 |
| ITNF | ≤ 0.2 |
| QDWS | ≤ 0.2 |

| Variant | one-hybrid fitness for binding NBS DNA |
| --- | --- |
| GNDG | ≤ 0.2 |
| IMDL | ≤ 0.2 |
| QDVC | ≤ 0.2 |
| NDDG | ≤ 0.2 |
| EMMT | ≤ 0.2 |
| RYCA | ≤ 0.2 |
| MKMG | ≤ 0.2 |
| QCQR | 0.612 |
| GKFE | ≤ 0.2 |
| YWKM | ≤ 0.2 |
| ERKF | ≤ 0.2 |
| GTFR | ≤ 0.2 |
| VSMC | ≤ 0.2 |
| GLLF | ≤ 0.2 |
| RPGD | ≤ 0.2 |
| RWSM | ≤ 0.2 |
| ASWT | ≤ 0.2 |
| KTPV | ≤ 0.2 |
| ISHA | ≤ 0.2 |
| TGCW | ≤ 0.2 |
| HQRG | ≤ 0.2 |
| DQAF | ≤ 0.2 |
| RFDS | ≤ 0.2 |
| FDKS | ≤ 0.2 |

| Variant | one-hybrid fitness for binding NBS DNA |
| --- | --- |
| AMPA | ≤ 0.2 |
| CKYK | ≤ 0.2 |
| MTVS | ≤ 0.2 |
| DIVI | ≤ 0.2 |
| QVPC | ≤ 0.2 |
| GHSG | ≤ 0.2 |
| SKRG | ≤ 0.2 |
| PSNG | ≤ 0.2 |
| SIPR | ≤ 0.2 |
| MRAH | ≤ 0.2 |
| AMGV | ≤ 0.2 |
| IEHC | ≤ 0.2 |
| PAHQ | ≤ 0.2 |
| RYEE | ≤ 0.2 |
| QITD | ≤ 0.2 |
| LHRC | ≤ 0.2 |
| QPPP | ≤ 0.2 |
| AETC | ≤ 0.2 |
| NMSL | ≤ 0.2 |
| NFDC | ≤ 0.2 |
| PNVF | ≤ 0.2 |
| KTCT | ≤ 0.2 |
| DKFS | ≤ 0.2 |
| YSHT | ≤ 0.2 |

| Variant | one-hybrid fitness for binding NBS DNA |
| --- | --- |
| DSTT | ≤ 0.2 |
| STKW | ≤ 0.2 |
| RYHE | ≤ 0.2 |
| ALNQ | ≤ 0.2 |
| VVHR | ≤ 0.2 |
| FSNS | ≤ 0.2 |
| RFFA | ≤ 0.2 |
| TLPT | ≤ 0.2 |
| RKYE | ≤ 0.2 |
| HAGR | ≤ 0.2 |
| SPNS | ≤ 0.2 |
| TERR | ≤ 0.2 |
| QRLE | 0.209 |
| FASQ | ≤ 0.2 |
| TIKM | ≤ 0.2 |
| DQER | ≤ 0.2 |
| LSMY | ≤ 0.2 |
| QKNP | ≤ 0.2 |
| DMCS | ≤ 0.2 |
| ISPG | ≤ 0.2 |
| YPKS | ≤ 0.2 |
| RTWR | 0.404 |
| RHAI | ≤ 0.2 |
| SAKM | ≤ 0.2 |

| Variant | one-hybrid fitness for binding NBS DNA |
| --- | --- |
| CNYS | ≤ 0.2 |
| GSVT | ≤ 0.2 |
| IPNV | ≤ 0.2 |
| HQLV | ≤ 0.2 |
| VHLM | ≤ 0.2 |
| LRPH | ≤ 0.2 |
| DGDG | ≤ 0.2 |
| NSLV | ≤ 0.2 |
| TVDI | ≤ 0.2 |
| QIMK | ≤ 0.2 |
| VATW | ≤ 0.2 |
| SMTE | ≤ 0.2 |
| YNRL | ≤ 0.2 |
| DEHR | ≤ 0.2 |
| KSRT | ≤ 0.2 |
| RYMV | ≤ 0.2 |
| PCDW | ≤ 0.2 |
| QMCI | ≤ 0.2 |
| QQKQ | 0.493 |
| THGY | ≤ 0.2 |
| TATP | ≤ 0.2 |
| ACMC | ≤ 0.2 |
| VWCS | ≤ 0.2 |
| VRSN | ≤ 0.2 |

| Variant | one-hybrid fitness for binding NBS DNA |
| --- | --- |
| VCLG | ≤ 0.2 |
| MHAC | ≤ 0.2 |
| YFRS | ≤ 0.2 |
| VDVC | ≤ 0.2 |
| LARC | ≤ 0.2 |
| MRRR | 0.286 |
| QCTC | ≤ 0.2 |
| RHWA | ≤ 0.2 |
| THQG | ≤ 0.2 |
| MAYW | ≤ 0.2 |
| STPY | ≤ 0.2 |
| SWNW | ≤ 0.2 |
| WAKY | ≤ 0.2 |
| KTTW | ≤ 0.2 |
| GGLC | ≤ 0.2 |
| KSCV | ≤ 0.2 |
| IRKR | 0.67 |
| YYRT | ≤ 0.2 |
| MNLC | ≤ 0.2 |
| CRYC | ≤ 0.2 |
| PTHM | ≤ 0.2 |
| VMMS | ≤ 0.2 |
| FTYC | ≤ 0.2 |
| KVHI | ≤ 0.2 |

| Variant | one-hybrid fitness for binding NBS DNA |
| --- | --- |
| KMAR | 0.299 |
| PYCH | ≤ 0.2 |
| ATRW | ≤ 0.2 |
| TECT | ≤ 0.2 |
| PPYM | ≤ 0.2 |
| AIAR | ≤ 0.2 |
| QFYR | ≤ 0.2 |
| TKDD | ≤ 0.2 |
| GPAH | ≤ 0.2 |
| SPGS | ≤ 0.2 |
| PHLH | ≤ 0.2 |
| GAFS | ≤ 0.2 |
| TIYS | ≤ 0.2 |
| WNES | ≤ 0.2 |
| EAMF | ≤ 0.2 |
| WQCW | ≤ 0.2 |
| NIKS | ≤ 0.2 |
| GDMS | ≤ 0.2 |
| QRWN | ≤ 0.2 |
| YCNT | ≤ 0.2 |
| PEAK | ≤ 0.2 |
| DPCA | ≤ 0.2 |
| HYCC | ≤ 0.2 |
| EKNC | ≤ 0.2 |

| Variant | one-hybrid fitness for binding NBS DNA |
| --- | --- |
| LYMR | ≤ 0.2 |
| PRDV | ≤ 0.2 |
| NVHP | ≤ 0.2 |
| TTGC | ≤ 0.2 |
| ECIG | ≤ 0.2 |
| CQRR | ≤ 0.2 |
| RRIF | ≤ 0.2 |
| DKRC | ≤ 0.2 |
| SACT | ≤ 0.2 |
| KSYS | ≤ 0.2 |
| YMCL | ≤ 0.2 |
| FPSH | ≤ 0.2 |
| CSSM | ≤ 0.2 |
| ILQK | ≤ 0.2 |
| NTVA | ≤ 0.2 |
| EIDN | ≤ 0.2 |
| SILD | ≤ 0.2 |
| QLGT | 0.369 |
